The values below come from article PMC4336329 (PLoS ONE, 2015).

The whole screen tested about 310,000 compounds, of which about 14,000 (4.5%) showed an effect of 50% or more. The effect is printed as a negative number. The list shows a part of the results.
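Note: peak tail current of the secondary pulse compared with the same well before compound.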

In the test the target is human ether-à-go-go-related gene (hERG) potassium channel (human, UniProt Q12809). In words: primary screen, population patch clamp on CHO cells stably expressing hERG.
Sequence of human ether-à-go-go-related gene (hERG) potassium channel (Q12809 whole entry, looked up): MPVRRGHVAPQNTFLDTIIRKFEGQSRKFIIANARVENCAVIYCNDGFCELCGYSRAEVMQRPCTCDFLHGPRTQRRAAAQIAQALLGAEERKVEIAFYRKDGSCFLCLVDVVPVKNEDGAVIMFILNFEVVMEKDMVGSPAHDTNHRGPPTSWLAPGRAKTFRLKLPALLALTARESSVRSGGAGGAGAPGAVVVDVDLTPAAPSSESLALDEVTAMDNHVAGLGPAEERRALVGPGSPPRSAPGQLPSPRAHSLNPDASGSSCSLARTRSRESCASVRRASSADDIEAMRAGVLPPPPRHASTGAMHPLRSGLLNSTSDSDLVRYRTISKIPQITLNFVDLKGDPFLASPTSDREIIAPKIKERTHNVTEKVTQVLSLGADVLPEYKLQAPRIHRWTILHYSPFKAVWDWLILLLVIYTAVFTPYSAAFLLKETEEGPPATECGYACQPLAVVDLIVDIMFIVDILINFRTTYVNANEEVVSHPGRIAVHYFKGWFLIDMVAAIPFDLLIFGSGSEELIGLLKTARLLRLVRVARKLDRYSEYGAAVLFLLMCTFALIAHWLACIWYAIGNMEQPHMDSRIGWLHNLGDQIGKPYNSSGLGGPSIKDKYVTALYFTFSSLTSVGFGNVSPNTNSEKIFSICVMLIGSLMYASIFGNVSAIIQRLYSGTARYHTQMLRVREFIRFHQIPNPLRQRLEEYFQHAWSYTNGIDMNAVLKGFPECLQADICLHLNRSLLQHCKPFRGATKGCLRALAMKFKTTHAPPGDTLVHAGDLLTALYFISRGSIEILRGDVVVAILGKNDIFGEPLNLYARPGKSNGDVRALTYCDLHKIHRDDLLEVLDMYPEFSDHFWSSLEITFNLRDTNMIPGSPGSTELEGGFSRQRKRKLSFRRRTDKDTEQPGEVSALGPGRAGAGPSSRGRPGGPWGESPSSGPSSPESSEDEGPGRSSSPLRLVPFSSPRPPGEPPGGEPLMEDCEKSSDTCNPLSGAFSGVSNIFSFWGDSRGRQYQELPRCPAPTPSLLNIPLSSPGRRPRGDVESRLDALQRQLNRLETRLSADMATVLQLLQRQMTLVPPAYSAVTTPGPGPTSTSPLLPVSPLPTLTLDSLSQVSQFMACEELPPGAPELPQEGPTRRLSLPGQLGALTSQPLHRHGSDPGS
As for `COc1ccc(S(=O)(=O)Nc2ccc(Cc3ccncc3)cc2)cc1OC`, the “hERG current change (%, negative = inhibition) at 10uM” value is reported as -19.8%.
`CC(=O)c1sc(NC(=O)c2ccc3c(c2)OCO3)nc1C`: the “hERG current change (%, negative = inhibition) at 10uM” value is reported as 3.04%.
Regarding `CCn1nnc(NC(=O)c2ccccc2Br)n1`, the “hERG current change (%, negative = inhibition) at 10uM” value was 25.6%.
To `COc1ccc(C(=O)Nc2cc3c4c(c2)CC(=O)N4CCC3)c(OC)c1` belongs -3.06%; to `CCCCNc1nc2c(-c3ccccc3)nnn2c2ccccc12`, 13.7%.
Take `Br.COc1ccccc1N1Cc2ccccc2C1`: the “hERG current change (%, negative = inhibition) at 10uM” value is recorded as -13.2%.
For `CCC1CCCCN1S(=O)(=O)c1ccccc1` (stereo not drawn), the “hERG current change (%, negative = inhibition) at 10uM” value is -13%.
Consider `Cc1ccc(NC(=O)C(C)Sc2nnc(-c3cccnc3)n2-c2ccccc2)cc1` (stereo not drawn), for which the “hERG current change (%, negative = inhibition) at 10uM” value is listed as -81.4%.
To `COc1ccc(Cn2c(-c3ccco3)nc3oc4ccccc4c(=O)c3c2=O)cc1` belongs -0.648%; to `CS(=O)(=O)N(Cc1ccccc1Cl)c1ccc(C(=O)NCc2cccnc2)cc1`, -38.5%; to `CC1=CC(=Nc2c(C)n(C)n(-c3ccccc3)c2=O)C=CC1=O`, -22.5%.
As for `Cc1cc(C)n2ncc(/C(N)=N/OC(=O)c3ccccc3F)c2n1`, the “hERG current change (%, negative = inhibition) at 10uM” value is reported as -0.298%.
To `CCCc1cc(=O)n2[nH]c(NCc3ccc(OC)cc3)nc2n1` belongs 29.5%; to `Cc1ccccc1-c1ccc(=O)n(CC(=O)Nc2ccc(-n3cnnn3)cc2)n1`, -10.5%; to `CCc1ccccc1Nc1nc(-c2cccnc2)cs1`, -3.32%.
Turning to `COc1ccc(Cl)cc1C(Nc1cccnc1)c1ccc2cccnc2c1O` (stereo not drawn), the “hERG current change (%, negative = inhibition) at 10uM” value is 7.97%.
Consider `CSc1nc(C)cc(OCCNS(=O)(=O)c2cc(C)ccc2C)n1`, for which the “hERG current change (%, negative = inhibition) at 10uM” value was determined as 1.36%.
Take `Cc1cccn2c(=O)c3cc(C#N)c(=N)n(CCCN4CCOCC4)c3nc12`: the “hERG current change (%, negative = inhibition) at 10uM” value was -80%.
Consider `N#Cc1c(SCC(=O)O)nc(-c2ccccc2)c2c1CCCC2`, for which the “hERG current change (%, negative = inhibition) at 10uM” value is listed as 10.6%.
As to `O=C(N/N=C/c1cn(-c2ccccc2)nc1-c1cc2ccccc2o1)c1cccnc1`, the “hERG current change (%, negative = inhibition) at 10uM” value is -7.63%.
As for `CCN(c1ccc(C)cc1C)S(=O)(=O)c1nnc(NC(=O)c2ccco2)s1`, the “hERG current change (%, negative = inhibition) at 10uM” value is given as 3.88%.
Consider `CC(C)C(NC(=O)c1ccc(C(C)(C)C)cc1)C(=O)NCC1(N(C)C)CCCCC1` (stereo not drawn), for which the “hERG current change (%, negative = inhibition) at 10uM” value is listed as -4.01%.
`Cc1cc(C(=O)NCCCc2ccccc2)no1`: the “hERG current change (%, negative = inhibition) at 10uM” value is recorded as 1.78%.
On to `CCOC(=O)/C=C/C(=O)N1CCc2ccccc21`, for which the “hERG current change (%, negative = inhibition) at 10uM” value was 0.96%.
In the case of `COc1cccc(C(=O)Nc2ccc(N3CCN(C(=O)c4ccco4)CC3)cc2)c1`, the “hERG current change (%, negative = inhibition) at 10uM” value is on record as 3.15%.
Regarding `COc1ccc(/C=C2\SC(=S)N(CCCC(=O)NNC(=O)c3ccccc3O)C2=O)cc1`, the “hERG current change (%, negative = inhibition) at 10uM” value worked out at 34.6%.
Consider `CC(C)(C)SCCNC(=O)c1ccc(Cl)c([N+](=O)[O-])c1`, for which the “hERG current change (%, negative = inhibition) at 10uM” value was -16.8%.
In the case of `CCc1ccc(OCC(=O)NNC(=O)c2cc(S(=O)(=O)N(C)C)ccc2N2CCCC2)cc1`, the “hERG current change (%, negative = inhibition) at 10uM” value is on record as -23.4%.
On to `CSc1ccc(S(=O)(=O)NCC(=O)OCC(=O)NCc2cccs2)cc1[N+](=O)[O-]`, for which the “hERG current change (%, negative = inhibition) at 10uM” value is -44.5%.
To `CCOc1ccc(CCNC(=O)C(C)n2nc(C)n3c(cc4occc43)c2=O)cc1OCC` (stereo not drawn) belongs 0.513%; to `CC(=O)N1CCc2cc(S(=O)(=O)Nc3ccccc3N3CCN(C)CC3)ccc21`, -6.97%.
For the compound `Nc1nc(-c2ccccc2)cc(N2CCCCC2)n1`, the “hERG current change (%, negative = inhibition) at 10uM” value is recorded as -46%.
As for `c1ccc(Cc2noc(CN3CCCC(CN4CCOCC4)C3)n2)cc1` (stereo not drawn), the “hERG current change (%, negative = inhibition) at 10uM” value came to 3.47%.
As for `CCC(NC(=O)C1(C)CC1(Br)Br)c1ccc(C)cc1` (stereo not drawn), the “hERG current change (%, negative = inhibition) at 10uM” value is listed as -12.3%.
Take `O=c1[nH]c(=S)n(C2CCCCC2)c(O)c1/C=N/N1CCOCC1`: the “hERG current change (%, negative = inhibition) at 10uM” value is on record as -29.8%.
On to `O=C(C1CCOCC1)N1CCC(CO)(CCc2ccccc2)CC1`, for which the “hERG current change (%, negative = inhibition) at 10uM” value is reported as 5.29%.
To `Cc1[nH]c2ccccc2c1/C=C(/C#N)C(=O)NC(C)C` belongs 13.2%; to `O=C(OCC1COc2ccccc2O1)c1ccccc1F` (stereo not drawn), -11%; to `Cc1nn(C)c(Cl)c1C(=O)NCC(=O)Nc1ccc(C(C)C)cc1`, -5.26%.
`CCCC(=O)Nc1cc(C)c(NC(=O)c2ccco2)cn1`: the “hERG current change (%, negative = inhibition) at 10uM” value was 18.3%.
For the compound `CC(C)CC(=O)Nc1ccccc1N1CCN(C(=O)c2ccccc2)CC1`, the “hERG current change (%, negative = inhibition) at 10uM” value is listed as -17.7%.
Take `CCOc1ccc(CCNC(=O)CS(=O)Cc2nc(-c3ccc(C)cc3)oc2C)cc1OCC` (stereo not drawn): the “hERG current change (%, negative = inhibition) at 10uM” value is listed as -26.7%.
To `CCN(CC(=O)NCc1ccc(Cl)cc1)C(=O)Cc1ccc(OC)cc1` belongs -75.7%; to `NS(=O)(=O)c1ccc(CCNC(=O)CSc2cccs2)cc1`, 8.78%.
To `CC(Sc1nc2cc([N+](=O)[O-])ccc2n1-c1cccc(C(F)(F)F)c1)C(=O)NC(N)=O` (stereo not drawn) belongs 13.6%.
